We go through three compounds from ChEMBL document CHEMBL1144677, “Novel quinazolinone derivatives as 5-HT7 receptor ligands” (Bioorg Med Chem, 2008).

The target in experiment [1] is 5-hydroxytryptamine receptor 2A (Homo sapiens, UniProt P28223).
Experiment [2] has as its target T1, 5-hydroxytryptamine receptor 2C (Homo sapiens, UniProt P28335).
T1 sequence (P28335 whole entry): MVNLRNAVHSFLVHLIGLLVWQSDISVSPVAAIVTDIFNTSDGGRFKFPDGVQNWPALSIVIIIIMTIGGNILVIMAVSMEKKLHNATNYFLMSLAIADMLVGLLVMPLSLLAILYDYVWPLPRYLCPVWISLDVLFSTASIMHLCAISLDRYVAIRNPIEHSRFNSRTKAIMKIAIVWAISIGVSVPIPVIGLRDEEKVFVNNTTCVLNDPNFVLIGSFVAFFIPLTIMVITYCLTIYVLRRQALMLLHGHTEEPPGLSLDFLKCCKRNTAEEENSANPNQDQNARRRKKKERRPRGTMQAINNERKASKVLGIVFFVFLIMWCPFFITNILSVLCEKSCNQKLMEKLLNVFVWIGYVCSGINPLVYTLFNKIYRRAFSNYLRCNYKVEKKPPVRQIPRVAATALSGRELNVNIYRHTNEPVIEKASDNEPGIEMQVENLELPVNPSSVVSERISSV

Another experiment deals with D(2) dopamine receptor (Homo sapiens, UniProt P14416).
Sequence of D(2) dopamine receptor (P14416 whole entry): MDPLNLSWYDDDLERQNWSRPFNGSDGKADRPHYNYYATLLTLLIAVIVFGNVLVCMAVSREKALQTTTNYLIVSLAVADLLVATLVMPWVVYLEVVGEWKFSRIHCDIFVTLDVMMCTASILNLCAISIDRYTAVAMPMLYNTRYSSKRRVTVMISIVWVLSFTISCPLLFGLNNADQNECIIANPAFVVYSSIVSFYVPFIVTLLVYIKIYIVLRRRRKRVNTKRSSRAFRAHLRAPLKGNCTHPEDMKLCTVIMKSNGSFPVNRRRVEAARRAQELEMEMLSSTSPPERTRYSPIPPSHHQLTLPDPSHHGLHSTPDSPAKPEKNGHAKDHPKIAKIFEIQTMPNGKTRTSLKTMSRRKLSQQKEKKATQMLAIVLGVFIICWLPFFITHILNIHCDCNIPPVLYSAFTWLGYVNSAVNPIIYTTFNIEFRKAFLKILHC
For experiment [3], the target named is T2, 5-hydroxytryptamine receptor 1A (Homo sapiens, UniProt P08908).
T2 sequence (P08908 whole entry): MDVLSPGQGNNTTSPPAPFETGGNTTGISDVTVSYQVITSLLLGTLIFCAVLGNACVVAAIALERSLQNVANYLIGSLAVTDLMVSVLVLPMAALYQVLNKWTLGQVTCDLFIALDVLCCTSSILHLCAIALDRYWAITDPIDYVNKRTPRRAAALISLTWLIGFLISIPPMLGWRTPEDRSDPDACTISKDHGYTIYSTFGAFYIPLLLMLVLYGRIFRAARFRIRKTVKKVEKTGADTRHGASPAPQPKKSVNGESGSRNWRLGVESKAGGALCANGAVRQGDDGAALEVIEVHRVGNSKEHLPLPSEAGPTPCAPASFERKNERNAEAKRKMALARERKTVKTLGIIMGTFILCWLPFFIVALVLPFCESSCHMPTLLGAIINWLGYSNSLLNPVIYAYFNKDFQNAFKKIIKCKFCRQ

Some results are limits rather than exact numbers.

Sequence of 5-hydroxytryptamine receptor 2A (P28223 whole entry): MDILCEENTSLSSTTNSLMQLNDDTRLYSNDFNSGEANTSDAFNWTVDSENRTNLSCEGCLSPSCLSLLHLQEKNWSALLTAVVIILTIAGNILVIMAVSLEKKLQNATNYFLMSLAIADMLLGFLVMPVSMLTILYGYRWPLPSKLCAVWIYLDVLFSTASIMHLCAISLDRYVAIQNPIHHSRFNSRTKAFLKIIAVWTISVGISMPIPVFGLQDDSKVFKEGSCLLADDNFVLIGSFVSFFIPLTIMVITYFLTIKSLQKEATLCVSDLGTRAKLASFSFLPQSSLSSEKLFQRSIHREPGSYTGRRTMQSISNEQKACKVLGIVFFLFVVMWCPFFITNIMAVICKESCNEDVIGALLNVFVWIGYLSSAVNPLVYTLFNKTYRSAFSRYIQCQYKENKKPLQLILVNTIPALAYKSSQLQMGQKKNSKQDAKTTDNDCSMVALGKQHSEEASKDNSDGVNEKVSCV

On to `CCOc1ccccc1N1CCN(CCCC(=O)NCc2nc3cc(F)ccc3c(=O)n2-c2ccc(OC)cc2)CC1`, for which the IC50 in experiment [1] is 2100 nM; in experiment [2] it was 3800 nM; at D(2) dopamine receptor it was 1500 nM; in experiment [3] it was 370 nM.

Consider `Cc1cccc(N2CCN(CCCC(=O)NCc3nc4cc(F)ccc4c(=O)n3-c3ccccc3)CC2)c1C`, for which the IC50 is 1700 nM in experiment [1], 3400 nM in experiment [2], 1500 nM on D(2) dopamine receptor and 400 nM in experiment [3].

Regarding `CCOc1ccccc1N1CCN(CCCC(=O)NCc2nc3ccc(F)cc3c(=O)n2-c2ccc(OC)cc2)CC1`, the IC50 in experiment [1] was 7900 nM; in experiment [2], > 10000 nM; against D(2) dopamine receptor it was 140 nM; in experiment [3] it was 120 nM.

As usually defined, the IC50 is the point on the concentration scale where inhibition reaches its midpoint.
